Experimental data from PubChem BioAssay AID328 (DTP/NCI, 2004).
Several values for one entry are separate records, joined by “and”; a condition that tells them apart may be missing. Identical values can stand only once. This continues a long series; more values of the same kind are listed elsewhere. Inconclusive results and toxic doses are left out. The calls were made as follows: active = survival T/C of 150% or more; inactive = T/C below 125% in these data.

Test system: BDF1 mice, P388 leukemia ip, median survival T/C
Test: NCI In Vivo Anticancer Drug Screen. Data for tumor model P388 Leukemia (intraperitoneal) in B6D2F1 (BDF1) mice
Conditions: endpoint: median survival time, higher = longer survival
Protocol: The antitumor activity of compounds was measured in mice bearing transplantable tumors. Survival or tumor size were measured and the results are expressed as the measurement made in the treated group (T) divided by the measurement made in the vehicle treated control group (C). The tumor model used in this assay is P388 Leukemia (intraperitoneal) in B6D2F1 (BDF1) mice

Measured: T/C

CC[C@]1(O)C[C@H]2CN(CCc3c([nH]c4ccccc34)[C@@](C(=O)OC)(c3cc4c(cc3OC)N(C=O)[C@H]3[C@@](O)(C(=O)OC)[C@H](OC(C)=O)[C@]5(CC)C=CCN6CC[C@]43[C@@H]65)C2)C1
active: dose: 0.06 mg/kg/injection, schedule: Q01DX009 (ip), vehicle: saline 220 % of control | dose: 0.06 mg/kg/injection, schedule: Q01DX010 (ip), vehicle: saline 190 % of control and 195 % of control (2×) | dose: 0.08 mg/kg/injection, schedule: Q01DX009 (ip), vehicle: clinical formulation 200 % of control | dose: 0.09 mg/kg/injection, schedule: Q01DX009 (ip), vehicle: saline 215 % of control | dose: 0.13 mg/kg/injection, schedule: Q01DX009 (ip), vehicle: saline 210 % of control | dose: 0.13 mg/kg/injection, schedule: Q01DX010 (ip), vehicle: saline 204 % of control and 209 % of control | dose: 0.14 mg/kg/injection, schedule: Q01DX009 (ip), vehicle: clinical formulation 213 % of control | dose: 0.14 mg/kg/injection, schedule: Q01DX009 (ip), vehicle: saline 222 % of control | dose: 0.22 mg/kg/injection, schedule: Q01DX009 (ip), vehicle: saline 200 % of control | dose: 0.24 mg/kg/injection, schedule: Q01DX009 (ip), vehicle: water 195 % of control | dose: 0.25 mg/kg/injection, schedule: Q04DX003 (ip), vehicle: saline 200 % of control | dose: 0.33 mg/kg/injection, schedule: Q01DX009 (ip), vehicle: saline 218 % of control | dose: 0.44 mg/kg/injection, schedule: Q04DX003 (ip), vehicle: saline 216 % of control | dose: 0.5 mg/kg/injection, schedule: Q04DX003 (ip), vehicle: saline 200 % of control and 210 % of control and 221 % of control | dose: 0.5 mg/kg/injection, schedule: Q04DX004 (ip), vehicle: saline 204 % of control | dose: 0.53 mg/kg/injection, schedule: Q04DX003 (ip), vehicle: clinical formulation 209 % of control | dose: 0.53 mg/kg/injection, schedule: Q04DX003 (ip), vehicle: saline 209 % of control | dose: 0.72 mg/kg/injection, schedule: Q04DX003 (ip), vehicle: saline 223 % of control | dose: 1.0 mg/kg/injection, schedule: Q01DX001 (ip), vehicle: saline 190 % of control | dose: 1.0 mg/kg/injection, schedule: Q04DX003 (ip), vehicle: water 186 % of control | dose: 1.65 mg/kg/injection, schedule: Q04DX003 (ip), vehicle: saline 197 % of control | dose: 2.0 mg/kg/injection, schedule: Q04DX003 (ip), vehicle: saline 215 % of control | dose: 15.6 micrograms/kg/injection, schedule: Q03HX024 (ip), vehicle: clinical formulation 200 % of control | dose: 31.2 micrograms/kg/injection, schedule: Q01DX009 (ip), vehicle: clinical formulation 190 % of control | dose: 31.2 micrograms/kg/injection, schedule: Q03HX016 (ip), vehicle: clinical formulation 204 % of control | dose: 31.2 micrograms/kg/injection, schedule: Q03HX024 (ip), vehicle: saline 205 % of control | dose: 62.0 micrograms/kg/injection, schedule: Q03HX008 (ip), vehicle: saline 210 % of control | dose: 62.5 micrograms/kg/injection, schedule: Q01DX009 (ip), vehicle: clinical formulation 200 % of control | dose: 62.5 micrograms/kg/injection, schedule: Q03HX008 (ip), vehicle: clinical formulation 195 % of control | dose: 62.5 micrograms/kg/injection, schedule: Q03HX024 (ip), vehicle: clinical formulation 204 % of control | dose: 75.0 micrograms/kg/injection, schedule: Q01DX009 (ip), vehicle: saline 195 % of control | dose: 125.0 micrograms/kg/injection, schedule: Q01DX009 (ip), vehicle: clinical formulation 214 % of control | dose: 125.0 micrograms/kg/injection, schedule: Q03HX008 (ip), vehicle: clinical formulation 200 % of control | dose: 125.0 micrograms/kg/injection, schedule: Q03HX008 (ip), vehicle: saline 205 % of control | dose: 125.0 micrograms/kg/injection, schedule: Q03HX024 (ip), vehicle: clinical formulation 223 % of control | dose: 150.0 micrograms/kg/injection, schedule: Q01DX009 (ip), vehicle: saline 210 % of control | dose: 250.0 micrograms/kg/injection, schedule: Q03HX008 (ip), vehicle: saline 220 % of control | dose: 250.0 micrograms/kg/injection, schedule: Q03HX016 (ip), vehicle: clinical formulation 219 % of control | dose: 250.0 micrograms/kg/injection, schedule: Q04DX003 (ip), vehicle: clinical formulation 200 % of control | dose: 250.0 micrograms/kg/injection, schedule: Q04DX003 (ip), vehicle: saline 192 % of control | dose: 300.0 micrograms/kg/injection, schedule: Q01DX009 (ip), vehicle: saline 220 % of control | dose: 324.0 micrograms/kg/injection, schedule: Q04DX003 (ip), vehicle: saline 198 % of control and 219 % of control | dose: 360.0 micrograms/kg/injection, schedule: Q04DX003 (ip), vehicle: saline 198 % of control and 213 % of control | dose: 389.0 micrograms/kg/injection, schedule: Q04DX003 (ip), vehicle: saline 216 % of control | dose: 432.0 micrograms/kg/injection, schedule: Q04DX003 (ip), vehicle: saline 189 % of control and 196 % of control | dose: 500.0 micrograms/kg/injection, schedule: Q03HX008 (ip), vehicle: saline 220 % of control | dose: 600.0 micrograms/kg/injection, schedule: Q04DX003 (ip), vehicle: saline 216 % of control | dose: 720.0 micrograms/kg/injection, schedule: Q04DX003 (ip), vehicle: saline 195 % of control | dose: 1000.0 micrograms/kg/injection, schedule: Q01DX001 (ip), vehicle: clinical formulation 223 % of control | dose: 1200.0 micrograms/kg/injection, schedule: Q04DX003 (ip), vehicle: saline 196 % of control | dose: 1670.0 micrograms/kg/injection, schedule: Q04DX003 (ip), vehicle: saline 213 % of control | dose: 2000.0 micrograms/kg/injection, schedule: Q01DX001 (ip), vehicle: clinical formulation 200 % of control
